Measured values published in the supplement of paper PMC3334620.
In all, about 33,000 sequences were measured (“E-score (-0.5 to 0.5)”: median about -0.04, highest 2% from about 0.36 on). Some of the results follow.

Each sequence was assayed against T1, Hmlalpha2 (UniProt P0CY09) (assay: PBM E-score (8-mer binding enrichment) (E-score (-0.5 to 0.5)); higher = stronger / more preferred TF binding; most listed sequences are background and not binding sites). Details: protein concentration: 200 nM; construct: GST-full length.
T1 sequence: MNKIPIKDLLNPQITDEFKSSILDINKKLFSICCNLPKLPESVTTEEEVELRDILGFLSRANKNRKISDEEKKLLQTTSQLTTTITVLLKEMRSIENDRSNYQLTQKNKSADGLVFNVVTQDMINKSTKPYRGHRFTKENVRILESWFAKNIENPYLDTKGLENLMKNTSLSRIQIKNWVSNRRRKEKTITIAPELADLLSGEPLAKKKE
How it was run: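 Detection of bound protein used fluorescent anti-GST, with scans normalised by masliner. The proteins were GST-tagged yeast transcription factors applied at about 100-200 nM to universal all-10-mer Agilent arrays made double-stranded by primer extension. Each ungapped eight-base word, pooled with its reverse complement, was scored with an E-score from the Universal PBM Analysis Suite.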

Compared with ACAAATGA, GGACGCCA is lower in “PBM E-score” value: 0.102 for the first, -0.257 for the second.

Going from GCCGACCA to CATAGGGG, the “PBM E-score” value falls from -0.155 to -0.18.

First: ACTTACAC
Second: GACCATTA
The “PBM E-score” value of the first is higher: 0.378 for the first, -0.0125 for the second.

Compared with AGCGCCTG, AATGAGTC is higher in “PBM E-score” value: -0.225 for the first, -0.0327 for the second.

Compared with CAATGTCG, GCGTTGCC is lower in “PBM E-score” value: 0.223 for the first, -0.123 for the second.

Going from CTTAGCGA to ATGCTTAG, the “PBM E-score” value rises from -0.0312 to 0.104.

First: AAGAAGCT
Second: CCTTACAC
The “PBM E-score” value of the first is lower: 0.114 for the first, 0.334 for the second.

Compared with TACACAGA, TACCGAAA is lower in “PBM E-score” value: 0.424 for the first, 0.0266 for the second.

First: AACAAGCG
Second: ATTGTTCC
The “PBM E-score” value of the first is higher: 0.233 for the first, -0.0173 for the second.

Going from GCGCAGCC to AGTCGGCA, the “PBM E-score” value rises from -0.315 to -0.0135.

First: AGGCGGAG
Second: AGAGCTGA
The “PBM E-score” value of the first is lower: -0.241 for the first, -0.24 for the second.

Compared with AGAGATTG, AAGCTCGG is lower in “PBM E-score” value: 0.0509 for the first, -0.14 for the second.

Compared with ACCGCTTA, CAATATTA is higher in “PBM E-score” value: -0.0235 for the first, 0.213 for the second.

Going from CTCCTAAA to TAGGAAAA, the “PBM E-score” value falls from -0.065 to -0.0836.

Compared with ATGTAATC, AATCCCCC is lower in “PBM E-score” value: 0.478 for the first, -0.225 for the second.

Compared with GCGGCAAA, CGAATGTA is higher in “PBM E-score” value: -0.16 for the first, 0.262 for the second.

First: AATCGCTG
Second: CAGCAAGA
The “PBM E-score” value of the first is lower: -0.0235 for the first, -0.0162 for the second.

Going from CTGCAAAC to CGCCATTA, the “PBM E-score” value falls from -0.0122 to -0.0604.

Compared with CCCTGTCC, AATGAAGC is higher in “PBM E-score” value: -0.108 for the first, -0.0377 for the second.

Compared with GACTTGAC, CCGTCTTA is lower in “PBM E-score” value: -0.0157 for the first, -0.154 for the second.

First: GTTAATGA
Second: AAGACATC
The “PBM E-score” value of the first is higher: 0.278 for the first, -0.171 for the second.

Going from CGACAGCC to CACGCAGG, the “PBM E-score” value rises from -0.223 to 0.196.

Going from TAGCGTCA to CCGGCCGA, the “PBM E-score” value falls from 0.0061 to -0.226.

First: CAGCCCCG
Second: CCATAGCC
The “PBM E-score” value of the first is higher: -0.108 for the first, -0.191 for the second.

Going from CACTCTTC to ATCGGCAT, the “PBM E-score” value rises from -0.174 to -0.0468.

Compared with CAGTTGCA, GTAGCAAA is higher in “PBM E-score” value: 0.00547 for the first, 0.128 for the second.

Compared with CATGTTAC, GATTTCCA is lower in “PBM E-score” value: 0.41 for the first, -0.0253 for the second.

Compared with ATAGCTGA, ACCCTCAC is lower in “PBM E-score” value: -0.077 for the first, -0.24 for the second.

First: AAACCAGG
Second: CGCACCTC
The “PBM E-score” value of the first is higher: -0.0724 for the first, -0.166 for the second.

Going from GGAAGATA to AAGCTAGA, the “PBM E-score” value falls from 0.0425 to -0.06.

First: CCGTGATA
Second: AAAATGTG
The “PBM E-score” value of the first is lower: -0.137 for the first, -0.0256 for the second.

Compared with GCGATGAC, GAGTGGAC is lower in “PBM E-score” value: 0.0674 for the first, -0.165 for the second.

Going from AGGTTGGG to CCGTCAAC, the “PBM E-score” value rises from -0.0364 to 0.0119.

Going from AATCCACA to CACCCCAG, the “PBM E-score” value falls from 0.0311 to -0.205.

First: AGTATGAC
Second: AATATCCA
The “PBM E-score” value of the first is lower: 0.0358 for the first, 0.0842 for the second.

Going from TCACCCCA to GTCGTGTA, the “PBM E-score” value rises from -0.0867 to 0.464.

Going from AACCCACG to ATATAGAT, the “PBM E-score” value rises from -0.0684 to 0.151.

Going from AAGTAAGA to AAGGCACG, the “PBM E-score” value falls from 0.0354 to -0.0893.

First: AATGGCGT
Second: AAATTCCC
The “PBM E-score” value of the first is lower: -0.15 for the first, -0.118 for the second.

Going from AAATGTCC to GCGCTACA, the “PBM E-score” value rises from -0.0256 to 0.0713.

Compared with GGGGGATA, ACACCCAT is higher in “PBM E-score” value: -0.344 for the first, -0.0488 for the second.

Compared with CATCTTTC, CATAAATG is lower in “PBM E-score” value: 0.0645 for the first, -0.0786 for the second.

Going from AACTTACA to GCTAACGA, the “PBM E-score” value falls from 0.327 to 0.0338.

First: GACAGGAC
Second: ACTCATCG
The “PBM E-score” value of the first is lower: -0.0641 for the first, 0.0955 for the second.

Going from CGTGTCCC to GGCCAGGA, the “PBM E-score” value falls from 0.0452 to -0.289.

Going from AGCCAGAC to AGGTAGTC, the “PBM E-score” value falls from -0.0435 to -0.102.

Compared with GGCCTAGA, ACTCTGAC is higher in “PBM E-score” value: -0.21 for the first, -0.0321 for the second.

Going from GTAGCCTA to CGACATTA, the “PBM E-score” value rises from -0.0197 to 0.244.

First: CGTAAAAC
Second: GTAGCGAC
The “PBM E-score” value of the first is higher: 0.281 for the first, -0.0195 for the second.

Going from GCATTGAA to GTGAAACA, the “PBM E-score” value rises from 0.141 to 0.148.

Compared with CCCCCAGG, ATGATTTC is higher in “PBM E-score” value: -0.26 for the first, 0.105 for the second.

First: GGTCCATA
Second: ATCCTGGA
The “PBM E-score” value of the first is lower: -0.245 for the first, -0.115 for the second.

First: CATCGACA
Second: ATCACACA
The “PBM E-score” value of the first is lower: -0.0243 for the first, 0.228 for the second.

Compared with AAGTGTGG, GGAGCGGA is lower in “PBM E-score” value: -0.123 for the first, -0.275 for the second.

First: AGTCCTCG
Second: AGGCCTGC
The “PBM E-score” value of the first is higher: -0.109 for the first, -0.139 for the second.

Going from ACCCCGAG to CGGGAACG, the “PBM E-score” value falls from -0.134 to -0.33.

Compared with AACGCCTA, ACACACTC is higher in “PBM E-score” value: -0.0389 for the first, 0.215 for the second.

First: CATGAATA
Second: GACGCATA
The “PBM E-score” value of the first is higher: 0.182 for the first, 0.0115 for the second.

First: ACTCCCTC
Second: ACTGACGG
The “PBM E-score” value of the first is lower: -0.321 for the first, -0.297 for the second.

Compared with ACCATTGG, CTAACTAA is lower in “PBM E-score” value: 0.0682 for the first, -0.00569 for the second.

Going from ATGCTCGC to AGCCTGAA, the “PBM E-score” value falls from -0.0941 to -0.141.

First: AACTTGGC
Second: ACGTCTAC
The “PBM E-score” value of the first is lower: -0.00553 for the first, 0.173 for the second.

Compared with CCAGAGCG, AAATCCCC is higher in “PBM E-score” value: -0.245 for the first, -0.186 for the second.

Compared with CAGGCAAA, GCGCTAAC is higher in “PBM E-score” value: -0.0461 for the first, 0.143 for the second.

Going from ACCCCACG to ATCGGAAC, the “PBM E-score” value falls from -0.105 to -0.129.

Compared with CCTGGACC, GTGGGCAA is lower in “PBM E-score” value: -0.0273 for the first, -0.095 for the second.

Compared with AAGTCGCC, CCACCTAA is lower in “PBM E-score” value: -0.0902 for the first, -0.162 for the second.

Compared with AGACCGCT, CATAACAA is higher in “PBM E-score” value: -0.0882 for the first, 0.323 for the second.

First: ACGGGTGG
Second: CTCAGAAG
The “PBM E-score” value of the first is lower: -0.233 for the first, -0.215 for the second.

Compared with ACTCCGAC, ATGCTAAC is higher in “PBM E-score” value: -0.167 for the first, 0.241 for the second.

Going from AAAATGTC to CGCGCACA, the “PBM E-score” value rises from 0.12 to 0.133.

First: AGCTCTGG
Second: AAAATTGC
The “PBM E-score” value of the first is lower: -0.159 for the first, -0.0622 for the second.

Going from CATCGAGA to CAACTTGC, the “PBM E-score” value falls from -0.124 to -0.159.

Compared with CGACCGAG, GTGGGAGA is higher in “PBM E-score” value: -0.232 for the first, -0.224 for the second.

Compared with ATGGTTCC, CAATGGTG is lower in “PBM E-score” value: 0.0259 for the first, -0.109 for the second.

Compared with CCGTCGGC, GTTTCAGA is higher in “PBM E-score” value: -0.208 for the first, -0.0374 for the second.

Compared with GACGTACA, ACCCAAGA is lower in “PBM E-score” value: 0.245 for the first, -0.149 for the second.

First: AGAGAGTC
Second: AGCGAGCC
The “PBM E-score” value of the first is lower: -0.252 for the first, -0.0977 for the second.

First: AACCGCCA
Second: CGTTACCC
The “PBM E-score” value of the first is higher: -0.0627 for the first, -0.108 for the second.

First: CTGCGGCA
Second: CCAGTCAC
The “PBM E-score” value of the first is lower: -0.294 for the first, -0.107 for the second.

First: CAACCCGG
Second: ATAGTAAA
The “PBM E-score” value of the first is lower: -0.143 for the first, 0.327 for the second.

Going from TGATCAAA to GAAATAGC, the “PBM E-score” value rises from -0.137 to -0.0263.

Going from GGTGGTAC to TATTTCGA, the “PBM E-score” value rises from -0.243 to 0.182.

First: AACCAACG
Second: TCATCAGA
The “PBM E-score” value of the first is higher: 0.0747 for the first, -0.134 for the second.

Going from ACCCATGC to AGACACCG, the “PBM E-score” value falls from 0.191 to -0.101.

First: CTCTACCC
Second: CTCGATCC
The “PBM E-score” value of the first is lower: -0.26 for the first, -0.151 for the second.
